Sequences with one replicate were seen in a single cluster, so their values are uncertain.
Tested on: ATP
Assay: switch fluorescence ratio, 500 uM ATP over buffer (Cy3 cluster intensity, sum of 5 cycles each) (fold (ratio)); higher = stronger signal-on switching upon ATP binding; sequences stand for … in TCGTCGGCAGCGTCAGATGTGTATAAGAGACAGTTTTTTTTTTTTTTTTTTTTTTTTT…TC
Conditions: aptamer strand: ATP DNA aptamer (quencher-CACCTGGGGGAGTATTGCGGAGGAAGG + anchor), 100 nM annealed; ATP concentration: 500 uM; one replicate
How it was run: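 Exposure to 500 uM ATP lasted 15 min at 22 °C before imaging, and a selection-buffer image was taken beforehand, for Cy3-labelled switching-strand clusters on a modified Illumina MiSeq flow-cell annealed to 100 nM quencher-labelled ATP aptamer. Five buffer/ATP cycles were run with NaOH stripping and re-annealing between them. The fluorescence ratio per cluster is summed target-cycle over summed buffer-cycle Cy3 intensity, averaged per switch-domain sequence. Clusters outside 100-1000 RFU were excluded.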

TGGGCGCGAG showed a switch fluorescence ratio of 1.01.
For TATGACGGTG, the switch fluorescence ratio was 0.95.
In the case of GAATAGCTTT, the switch fluorescence ratio is reported as 0.988.
GGCTAATAGG was tested, and the switch fluorescence ratio was 1.03.
ACGTCCGT gave a switch fluorescence ratio of 1.
Work on GACGATGTAG yielded a switch fluorescence ratio of 1.
TATTTACTT gave a switch fluorescence ratio of 0.999.
With TCGTTCACGT the switch fluorescence ratio was 1.04.
TGTATGGAAC showed a switch fluorescence ratio of 0.999.
With CTGTACCGGT the switch fluorescence ratio was 1.
With CAGGTTCATC the switch fluorescence ratio was 1.01.
In the case of TGATGATCAG, the switch fluorescence ratio is reported as 1.01.
GGATTGGCCC was tested, and the switch fluorescence ratio was 0.992.
GACGGGAGGT gave a switch fluorescence ratio of 0.985.
For ACACCGGGA, the switch fluorescence ratio was 1.16.
TCGTGCCCAT was tested, and the switch fluorescence ratio was 1.02.
Sequence TGGGTGTCAT has a switch fluorescence ratio of 1.02.
Work on GGGGCCGTAG yielded a switch fluorescence ratio of 0.985.
ACCGTTAACT gave a switch fluorescence ratio of 1.11.
For CTTAATGTGT, the switch fluorescence ratio was 1.
Sequence TTACGCCACC has a switch fluorescence ratio of 1.96.
Work on AGGGCGCCGT yielded a switch fluorescence ratio of 1.16.
Work on TTGCACTTGT yielded a switch fluorescence ratio of 1.14.
With GGAGATTACA the switch fluorescence ratio was 1.04.
CAGGCAAGGT was tested, and the switch fluorescence ratio was 1.03.
TCATCTGTTT gave a switch fluorescence ratio of 1.07.
Work on CGAATTTTAC yielded a switch fluorescence ratio of 1.03.
Work on CATTAGATTG yielded a switch fluorescence ratio of 1.03.
GATTACAGGC showed a switch fluorescence ratio of 1.06.
ACATTGGTT gave a switch fluorescence ratio of 0.985.
Work on TCGTGGGCGG yielded a switch fluorescence ratio of 0.985.
Sequence AGCAGACCGC has a switch fluorescence ratio of 1.03.
CGGATGAAGC showed a switch fluorescence ratio of 1.02.
Sequence CAGTCTCCC has a switch fluorescence ratio of 1.04.
In the case of GAGTTGGATA, the switch fluorescence ratio is reported as 0.983.
TTGGTAGAG was tested, and the switch fluorescence ratio was 0.994.
CGCGAATCTG gave a switch fluorescence ratio of 1.06.
For TTCCGGGTAG, the switch fluorescence ratio was 1.03.
For TTTTAACCC, the switch fluorescence ratio was 0.949.
TTACAGTCG was tested, and the switch fluorescence ratio was 1.05.
CTCGAAGGAA gave a switch fluorescence ratio of 1.04.
TTCTGAAGAG gave a switch fluorescence ratio of 1.01.
GGTGAATACA showed a switch fluorescence ratio of 0.964.
Work on TATCTCAATC yielded a switch fluorescence ratio of 1.05.
Sequence CGTGGTGGA has a switch fluorescence ratio of 1.04.
For TCTAATCTGA, the switch fluorescence ratio was 0.986.
Work on GATACCAACG yielded a switch fluorescence ratio of 1.39.
TGATTTTGTA showed a switch fluorescence ratio of 0.977.
In the case of GGTCGCCAGT, the switch fluorescence ratio is reported as 1.
Sequence AAAAATTAGC has a switch fluorescence ratio of 0.95.
For CTGTGTGGCA, the switch fluorescence ratio was 0.985.
CGGTACAGAC showed a switch fluorescence ratio of 1.1.
For CGTCGATCAT, the switch fluorescence ratio was 1.02.
TGCTTGTTGG gave a switch fluorescence ratio of 0.977.
CCTCTCGGGT gave a switch fluorescence ratio of 1.2.
CAGTCGGGTA showed a switch fluorescence ratio of 0.972.
Work on TAGATTTCGG yielded a switch fluorescence ratio of 0.968.
TATCGAGATT showed a switch fluorescence ratio of 0.979.
AAACGGATCG was tested, and the switch fluorescence ratio was 1.08.
AGAGCTTGTT showed a switch fluorescence ratio of 1.
CGGGGAATCG showed a switch fluorescence ratio of 1.01.
In the case of GTTTCGGTGC, the switch fluorescence ratio is reported as 1.01.
Sequence ACCCAGACTG has a switch fluorescence ratio of 1.27.
GACGTGTGGA showed a switch fluorescence ratio of 1.
Sequence CGGCAATATG has a switch fluorescence ratio of 4.45.
Work on TAGAAACATA yielded a switch fluorescence ratio of 0.983.
In the case of GGGGAGACTT, the switch fluorescence ratio is reported as 1.02.
With AAGGGGTCCG the switch fluorescence ratio was 0.915.
ATGGCCGCTA gave a switch fluorescence ratio of 1.14.
With AAGATCGGG the switch fluorescence ratio was 1.07.
CGTTGGTGGA was tested, and the switch fluorescence ratio was 1.03.
CCCCCCCTAA was tested, and the switch fluorescence ratio was 1.55.
In the case of GATCCGAGCG, the switch fluorescence ratio is reported as 1.09.
GTGCGGGGGC gave a switch fluorescence ratio of 1.03.
With GGCAAATGAC the switch fluorescence ratio was 1.2.
In the case of AAATTATGAG, the switch fluorescence ratio is reported as 0.946.
In the case of GCTCTGTCCT, the switch fluorescence ratio is reported as 1.04.
TATCTTAATT showed a switch fluorescence ratio of 1.01.
ATTTGCCATT was tested, and the switch fluorescence ratio was 1.02.
For TACGGTTGTG, the switch fluorescence ratio was 1.
AGTCTTCTCT was tested, and the switch fluorescence ratio was 1.08.
In the case of GTAGAATTGA, the switch fluorescence ratio is reported as 1.
In the case of TAAGTATAGC, the switch fluorescence ratio is reported as 0.956.
Work on CGTTGACGCC yielded a switch fluorescence ratio of 1.01.
With GCGATAATAT the switch fluorescence ratio was 0.989.
CCCGTACAGT gave a switch fluorescence ratio of 1.04.
Work on CCGGTAGCCA yielded a switch fluorescence ratio of 1.8.
Sequence GCTAGTAACC has a switch fluorescence ratio of 1.02.
Work on TTACGTGCCT yielded a switch fluorescence ratio of 1.01.
Sequence GGGGAGGCAA has a switch fluorescence ratio of 1.05.
GGGAACCGGC was tested, and the switch fluorescence ratio was 1.03.
ACAGTTAACG was tested, and the switch fluorescence ratio was 0.972.
For CCCTTTATCC, the switch fluorescence ratio was 1.09.
GCGTGATGAG showed a switch fluorescence ratio of 0.999.
Work on GGTGACTGCG yielded a switch fluorescence ratio of 0.996.
CTGTATTCTT was tested, and the switch fluorescence ratio was 1.02.
For CATGTATTTC, the switch fluorescence ratio was 0.967.
GACGACGG gave a switch fluorescence ratio of 1.05.
Sequence GTATTCTGCT has a switch fluorescence ratio of 1.02.
Work on TTTGCGGAGA yielded a switch fluorescence ratio of 1.04.
Sequence CTGGCCCGCA has a switch fluorescence ratio of 2.08.
Sequence CTTTGGCCC has a switch fluorescence ratio of 1.13.
Work on TTACTAAAGC yielded a switch fluorescence ratio of 1.05.
TGAGGCATGC showed a switch fluorescence ratio of 1.27.
TTGACGGCAT gave a switch fluorescence ratio of 0.998.
For CTTTTGGTGG, the switch fluorescence ratio was 1.
For AAGATAAGAC, the switch fluorescence ratio was 1.01.
For CTCGTCTGT, the switch fluorescence ratio was 0.972.
For TCCTAGACTA, the switch fluorescence ratio was 0.974.
CGGGATAATT was tested, and the switch fluorescence ratio was 0.997.
In the case of GAGTGGCGCC, the switch fluorescence ratio is reported as 0.983.
Sequence ACTTGGTCTC has a switch fluorescence ratio of 1.01.
Work on GAGGTCGCTA yielded a switch fluorescence ratio of 1.03.
GCGAAGAGGT showed a switch fluorescence ratio of 0.975.
Work on CATGCAATTA yielded a switch fluorescence ratio of 1.19.
Work on CGTTGTGCTT yielded a switch fluorescence ratio of 0.983.
With TGAGCATGAT the switch fluorescence ratio was 1.05.
For ATTGAACCTT, the switch fluorescence ratio was 1.01.
CGTTACTTCA was tested, and the switch fluorescence ratio was 1.06.
For ATGTATACGC, the switch fluorescence ratio was 1.05.
GTTTACCATT gave a switch fluorescence ratio of 0.987.
Work on CCTGCGTCCA yielded a switch fluorescence ratio of 2.44.
TGTTGAGCTA was tested, and the switch fluorescence ratio was 1.
Work on ATATAGAGCT yielded a switch fluorescence ratio of 1.01.
Work on CTGGTTGGCC yielded a switch fluorescence ratio of 1.01.
In the case of GCTTATTG, the switch fluorescence ratio is reported as 0.993.
ATAATGGCCC showed a switch fluorescence ratio of 0.951.
With AAGTAACTGA the switch fluorescence ratio was 1.08.
GGCTTAGGGT showed a switch fluorescence ratio of 0.983.
CGTACTTCTT was tested, and the switch fluorescence ratio was 0.997.
In the case of GGACGGTTTC, the switch fluorescence ratio is reported as 1.
For TGAATGCGTT, the switch fluorescence ratio was 1.01.
For GTGATAAATA, the switch fluorescence ratio was 1.03.
AGTCGGATTG was tested, and the switch fluorescence ratio was 0.938.
GATACGAAT gave a switch fluorescence ratio of 0.984.
Sequence TATCTGGATA has a switch fluorescence ratio of 1.04.
Work on GTTACCCTAG yielded a switch fluorescence ratio of 1.04.
Work on TATGCTGCGA yielded a switch fluorescence ratio of 1.04.
CAGTGACCCG gave a switch fluorescence ratio of 0.99.
CCAATCCATT showed a switch fluorescence ratio of 0.99.
GATTTTCCCT was tested, and the switch fluorescence ratio was 1.05.
TTGGCCGTT showed a switch fluorescence ratio of 0.983.
For TAAGAGCAGA, the switch fluorescence ratio was 1.06.
Sequence TACCGGCATT has a switch fluorescence ratio of 1.01.
CGCGCAAAAA was tested, and the switch fluorescence ratio was 1.09.
In the case of TCTAAGGTCA, the switch fluorescence ratio is reported as 1.1.
AGTTGAATCA showed a switch fluorescence ratio of 1.02.
ACTTGCACGG was tested, and the switch fluorescence ratio was 1.23.
For TGTTTTGATA, the switch fluorescence ratio was 0.982.
In the case of CAGTACACC, the switch fluorescence ratio is reported as 1.03.
TGCAGGTGAA was tested, and the switch fluorescence ratio was 1.53.
With TAGGTGGGAA the switch fluorescence ratio was 0.997.
Sequence GATACAAATA has a switch fluorescence ratio of 0.979.
For CAAGATTTGG, the switch fluorescence ratio was 1.02.
GCGTATGGG was tested, and the switch fluorescence ratio was 1.03.
ACGTAATGGT showed a switch fluorescence ratio of 1.24.
Sequence AGGATCGCTC has a switch fluorescence ratio of 1.02.
